Source: PubChem BioAssay (NCI)
“And” between values parts separate entries of the source, which are not always exact repeats. Equal values may be shown once.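 Values below derive from 48-hour exposures of cells grown in 96-well plates, with endpoints linearly interpolated between the two concentrations bracketing the appropriate inhibition level. Here, GI50 denotes the concentration required for 50% inhibition of growth. TGI: concentration producing complete growth inhibition.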

tested on: NCI-H322M lung; test: DTP human tumour cell line panel, 48 h

| Compound | TGI | GI50 |
| --- | --- | --- |
| COc1cc(C2SCC(=O)N2c2ccc(NC(=O)c3ccc(N4C(=O)CSC4c4cc(OC)c(OC)c(OC)c4)cc3)cc2)cc(OC)c1OC (stereo not given) | > 100 µM | – |
| Cc1ccccc1Nc1nc2c(s1)C(=O)c1ccccc1C2=O | 28.4 µM | – |
| C(=N\NC1=NCCCN1)/c1ccc2ccccc2c1 | 29.1 µM | – |
| CS(=O)(=O)OCCn1c(=O)n(CCOS(C)(=O)=O)c(=O)n(CCOS(C)(=O)=O)c1=O | > 100 µM | – |
| O=P(c1ccccc1)(c1ccccc1)N1O[C@@H](c2ccccc2)C=C[C@H]1c1ccccc1 | 29.5 µM | – |
| O=C1c2cc3c(cc2CC1Br)CCC3 (stereo not given) | 29.8 µM | – |
| Cc1ccc2nc3c(Cl)c(C)c(=O)cc-3sc2c1 | > 100 µM | > 100 µM |
| O=c1c(Cl)c(Cl)cnn1CCc1ccncc1 | 31.2 µM | – |
| CN(C)c1ccc(C=C2N=C(c3ccccc3)N(c3cc(C(=O)c4ccccc4)ccc3N3C(=O)/C(=C/c4ccc(N(C)C)cc4)N=C3c3ccccc3)C2=O)cc1 | > 100 µM | – |
| COc1ccc(C(OCC2OC(n3cc(C)c(=O)[nH]c3=O)CC2n2cc(Cn3cc(F)c(=O)[nH]c3=O)nn2)(c2ccccc2)c2ccccc2)cc1 (stereo not given) | 19.8 µM | – |
| COc1ccccc1/C=C/C(=O)/C=C/c1ccccc1O | 8.46 µM | 2.18 µM |
| COc1ccc(C#CC(=O)O)c(OC)c1 | > 100 µM | – |
| c1ccc2nc3c(cc4ccccn43)nc2c1 | > 100 µM | 41.8 µM |
| Cc1nn(C(=O)Cc2ccccc2)c2c1C(c1ccc(O)cc1)SC(N)=N2 (stereo not given) | > 100 µM | – |
| Cn1c([N+](=O)[O-])cnc1/C=C1\Oc2cc(Cl)ccc2C1=O | 38.6 µM | 7.56 µM |
| CCCNC(=O)CCC(C)[C@H]1CCC2C3C(C[C@H](OC(C)=O)[C@@]21C)[C@@]1(C)CCC2(C[C@H]1C[C@H]3OC(C)=O)OOC1(CCC(C)CC1)OO2 (stereo not given in full) | > 100 µM | – |
| O=c1c2cc3c(cc2[nH]c2ncccc12)OCO3 | > 10 µM | – |
| CC(C)/C(Cl)=N\OC(=O)Nc1ccc(C#N)cc1 | 31.6 µM | – |
| COc1ccc2cc3c4cc5c(cc4cc[n+]3cc2c1OC)OCO5 | > 100 µM | – |
| COCOc1ccc(Cn2c(=O)n(C)c(=O)c3c2ncn3C)cc1[N+](=O)[O-] | > 100 µM | – |
| Cn1c(/C(C#N)=C/c2ccc3ccccc3c2)cc2ccccc21 | > 100 µM | 0.668 µM |
| COc1cc([N+](=O)[O-])c(OC)cc1-c1nc2sc(Cl)cn2c1/C=N/Nc1ccccn1 | > 50 µM | 12.6 µM |
| CCN(CC)CC(=O)N1CCc2c([nH]c3ccccc23)C1c1cccnc1 (stereo not given) | > 100 µM | – |
| Cc1nc(Nc2n[nH]c3c2CN(C(=O)N[C@H](CN(C)C)c2ccccc2)C3(C)C)c2sccc2n1 | > 5.88 µM and 11.8 µM | 0.148 µM and 0.248 µM |

| Compound | TGI | GI50 |
| --- | --- | --- |
| Cn1cc(-c2csc(-c3cn(C)c4ccccc34)n2)c2cnccc21 | 3.1 µM | 1.63 µM |
| C#CCC(N)(CO)C(=O)O (stereo not given) | > 100 µM | – |
| BrC/C=C/C[P+](c1ccccc1)(c1ccccc1)c1ccccc1 | > 100 µM | – |
| COc1ccc2nc3cc(Cl)ccc3c(NCCCNCCCNc3c4ccc(Cl)cc4nc4ccc(OC)cc34)c2c1 | 0.169 µM | – |
| CC(=O)NNc1nc(C)c(C(=O)NNC(=O)C(=O)Nc2nc3ccc([N+](=O)[O-])cc3s2)s1 | > 100 µM | – |
| N#CCCN(CCC#N)c1ccc(/C=C2\N=C(c3ccccc3)N(c3ccc(Cl)cc3)C2=O)cc1 | > 100 µM | – |
| CN(C)CCCN1C(=S)N(CCCN(C)C)c2c3cc(O)ccc3nc3c([N+](=O)[O-])ccc1c23 | 24.4 µM | – |
| CCN(CC)CCNC(=O)c1cn2ncnc(Oc3ccc(NC(=O)Nc4ccc(Cl)c(C(F)(F)F)c4)c(F)c3)c2c1C | 3.26 µM | 1.83 µM |
| CN(C)c1nc(=NCc2ccccc2)ss1 | > 10 µM | – |
| C1=CC2=CC=CC3c4nc5ccc6ccccc6c5nc4C(=C1)C23 (stereo not given) | > 100 µM | – |
| CCSc1nc(N)c2cn[nH]c2n1 | 56.6 µM | 19.6 µM |
| Cc1cc2c(Br)cc(Br)c(O)c2nc1C(=O)c1ccccc1 | 50.1 µM | – |
| OC(c1ccc(Br)cc1)(c1cccs1)C1CC1 (stereo not given) | > 100 µM | – |
| CCCCCCCCCCCCCC(=O)OCC1OC(=O)CC1O (stereo not given) | > 100 µM | – |
| C=CCSc1nc2ccccc2c(=O)n1Cc1ccco1 | > 100 µM | – |
| CCCCCCCCCCCCCCCCCCNC(=O)[C@H]1CSC(c2cccs2)N1 (stereo not given in full) | > 50 µM | 2.14 µM |
| COc1cc2c(cc1-c1c(C)noc1C)cc(C)c(=O)n2Cc1ccccn1 | > 100 µM | 3.88 µM |
| O=C1C=CC(=O)N1Nc1ccc([N+](=O)[O-])cc1[N+](=O)[O-] | > 100 µM | – |
| O=[N+]([O-])/C(C(Cl)=C(Cl)Cl)=C(\Nc1cccc2cccnc12)SCc1ccccc1 | 56.4 µM | – |
| O=C1C[C@H](Sc2ccccc2)C2(OCCO2)[C@@H](Sc2ccccc2)C1 | 20.1 µM | – |
| CC(=O)N/N=C1\NC(=O)C[C@H]2[C@@H]3CC=C4C[C@@H](OC(C)=O)CC[C@]4(C)[C@H]3CC[C@]12C | > 100 µM | – |
| COc1cc(NS(C)(=O)=O)ccc1N1Cc2cnc3ccc4[nH]c(C)cc1c4c23 | > 100 µM | – |
| c1ccc2sc(SCSc3nc4ccccc4s3)nc2c1 | > 100 µM | – |
| CC(=O)N(C(C)=O)C1=C2c3ccccc3N(S(=O)(=O)c3ccccc3)C2n2c(=O)n(-c3ccccc3)c(=O)n2C1 (stereo not given) | > 100 µM | – |
